Assay results as given in the BET-seq Pho4 binding data (Le et al. 2018).
The other results are listed elsewhere or left out. These are noisy estimates, calculated here from bound and input reads.

Target: T1, Pho4 (S. cerevisiae) (UniProt P07270)
T1 sequence: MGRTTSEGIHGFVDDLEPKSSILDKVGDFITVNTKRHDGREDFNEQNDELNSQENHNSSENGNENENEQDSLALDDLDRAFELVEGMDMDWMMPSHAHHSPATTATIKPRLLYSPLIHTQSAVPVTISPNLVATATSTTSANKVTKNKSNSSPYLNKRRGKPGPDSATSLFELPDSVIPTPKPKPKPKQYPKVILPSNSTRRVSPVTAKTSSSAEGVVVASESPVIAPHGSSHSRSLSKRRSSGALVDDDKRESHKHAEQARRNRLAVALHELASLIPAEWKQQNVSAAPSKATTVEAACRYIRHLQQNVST
Experiment: relative binding free energy (BET-seq); higher = weaker binding
Conditions: reference: library average

Row | Sequence | relative binding free energy
1 | CAACGCACGTGTGGGG | -0.09 kcal/mol
2 | TCGGGCACGTGTCGGG | 0.04 kcal/mol
3 | TAAGGCACGTGGGAGA | -0.27 kcal/mol
4 | GATGCCACGTGGAGTG | -0.01 kcal/mol
5 | TGGAGCACGTGGTGCC | -0.17 kcal/mol
6 | TTGTTCACGTGCATCT | 0.16 kcal/mol
7 | ATTTTCACGTGTGTAT | 0.22 kcal/mol
8 | ATGATCACGTGATTAG | 0.34 kcal/mol
9 | GTGAACACGTGTGAGT | 0.12 kcal/mol
10 | GGTCCCACGTGGGGGC | -0.19 kcal/mol
11 | AAGGGCACGTGATTAG | -0.09 kcal/mol
12 | AGACGCACGTGGGGAT | -0.13 kcal/mol
13 | TCATTCACGTGATTTG | 0.4 kcal/mol
14 | GGAATCACGTGGGTCA | 0.08 kcal/mol
15 | TCAGTCACGTGGGTGT | -0.05 kcal/mol
16 | AGAGTCACGTGGCGCT | 0.06 kcal/mol
17 | TGTAACACGTGTTCAG | -0.03 kcal/mol
18 | ATGGGCACGTGTTTCA | -0.1 kcal/mol
19 | CAATGCACGTGGTGTA | -0.22 kcal/mol
20 | TTTTGCACGTGATACT | -0.05 kcal/mol
21 | AGTGTCACGTGAGGCG | 0.33 kcal/mol

Row | Sequence | relative binding free energy
22 | TCACTCACGTGGGGGT | 0.19 kcal/mol
23 | TAGGGCACGTGGCCTG | -0.21 kcal/mol
24 | CATGACACGTGTGGTC | 0.19 kcal/mol
25 | TTTTACACGTGGAGGG | 0.08 kcal/mol
26 | GTTTGCACGTGACGTT | 0.12 kcal/mol
27 | TCTGGCACGTGGTAGG | -0.13 kcal/mol
28 | GTAGACACGTGGCTTG | -0.01 kcal/mol
29 | GCGGGCACGTGGGTGG | -0.21 kcal/mol
30 | TGTTTCACGTGGAAAT | 0.2 kcal/mol
31 | TTTCGCACGTGGGTTA | -0.07 kcal/mol
32 | AGTGGCACGTGAAGGC | 0.13 kcal/mol
33 | TGGAGCACGTGGAGAT | 0.05 kcal/mol
34 | GCGAGCACGTGAGGGA | 0.26 kcal/mol
35 | ATTGACACGTGAGGGG | 0.21 kcal/mol
36 | TACATCACGTGTGAGT | 0.31 kcal/mol
37 | TGGGTCACGTGGTCGC | -0.01 kcal/mol
38 | TAAGGCACGTGGGAGG | -0.14 kcal/mol
39 | TTTAACACGTGGCTGT | -0.06 kcal/mol
40 | GTTTACACGTGATTTG | 0.23 kcal/mol
41 | GTATACACGTGTTGTA | 0 kcal/mol
42 | TGATTCACGTGTAAGG | 0.32 kcal/mol

Row | Sequence | relative binding free energy
43 | GGAAACACGTGAAGGG | 0.23 kcal/mol
44 | TAGGTCACGTGGGCAC | 0.05 kcal/mol
45 | ATTTTCACGTGTGTCG | 0.32 kcal/mol
46 | AGCTGCACGTGTATGT | -0.06 kcal/mol
47 | CGAGACACGTGGTTGT | -0.06 kcal/mol
48 | TAGTTCACGTGGAGGA | 0.24 kcal/mol
49 | TGTATCACGTGGATCG | 0.09 kcal/mol
50 | TTTCGCACGTGTTTAA | -0.05 kcal/mol
51 | AGGTGCACGTGGCAGA | -0.08 kcal/mol
52 | CATTTCACGTGGTTTT | 0.08 kcal/mol
53 | GTGCTCACGTGTATGG | 0.18 kcal/mol
54 | TTTCTCACGTGCGTAG | 0.36 kcal/mol
55 | TGTCTCACGTGCAGGG | 0.2 kcal/mol
56 | TTAGTCACGTGCAATG | 0.07 kcal/mol
57 | TTGTGCACGTGTATTC | 0.13 kcal/mol
58 | TTTGTCACGTGAAGCA | 0.3 kcal/mol
59 | GTTGCCACGTGTAGAG | -0.09 kcal/mol
60 | TCTTACACGTGGTGGC | 0.11 kcal/mol
61 | CGGTTCACGTGCGTTT | 0.31 kcal/mol
62 | CGGGTCACGTGGGTCA | 0.03 kcal/mol
63 | TTTGACACGTGAGTCG | 0.1 kcal/mol
